Experimental data taken from the supplement of paper PMC3334620.
The full ranking holds about 33,000 sequences; the median of “E-score (-0.5 to 0.5)” is about -0.011, and the highest 2% start at about 0.28. The list shows a part of the results.

Target: T1, Gcr1 (UniProt P07261)
T1 sequence: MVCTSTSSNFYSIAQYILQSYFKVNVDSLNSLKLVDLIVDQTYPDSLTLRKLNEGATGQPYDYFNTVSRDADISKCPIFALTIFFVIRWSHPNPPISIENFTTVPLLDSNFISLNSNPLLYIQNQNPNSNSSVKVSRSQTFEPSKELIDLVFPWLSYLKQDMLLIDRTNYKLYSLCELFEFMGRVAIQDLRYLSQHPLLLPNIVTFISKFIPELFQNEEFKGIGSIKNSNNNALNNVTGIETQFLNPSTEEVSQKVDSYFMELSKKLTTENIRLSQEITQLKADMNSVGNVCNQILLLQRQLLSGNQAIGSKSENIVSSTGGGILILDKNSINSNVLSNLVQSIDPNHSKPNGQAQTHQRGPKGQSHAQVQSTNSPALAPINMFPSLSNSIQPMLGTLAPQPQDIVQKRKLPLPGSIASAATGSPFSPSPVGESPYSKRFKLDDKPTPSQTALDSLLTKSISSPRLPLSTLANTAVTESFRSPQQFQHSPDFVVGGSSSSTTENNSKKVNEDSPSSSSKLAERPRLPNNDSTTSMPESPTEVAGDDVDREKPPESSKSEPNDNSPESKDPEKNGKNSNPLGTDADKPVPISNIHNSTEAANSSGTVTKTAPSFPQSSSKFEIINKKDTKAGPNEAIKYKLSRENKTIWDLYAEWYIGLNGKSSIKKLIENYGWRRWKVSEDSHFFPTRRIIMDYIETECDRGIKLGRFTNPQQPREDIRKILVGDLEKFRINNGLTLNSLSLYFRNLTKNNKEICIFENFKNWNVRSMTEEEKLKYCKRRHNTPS
Experiment: PBM E-score (8-mer binding enrichment) (E-score (-0.5 to 0.5)); higher = stronger / more preferred TF binding; most listed sequences are background and not binding sites
Conditions: protein concentration: 100 nM; construct: GST-full length
Protocol: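 Universal 'all 10-mer' protein binding microarrays (Agilent AMADID 015681) probed with GST-tagged S. cerevisiae TFs (full-length or DBD) made by in vitro transcription/translation (PURExpress), about 100-200 nM. Bound TF was detected with fluorescent anti-GST. Each ungapped 8-mer (which stands for itself and its reverse complement) is scored by the PBM enrichment score (E-score), a modified Wilcoxon-Mann-Whitney statistic from -0.5 to +0.5, computed with the Universal PBM Analysis Suite. Scale: above 0.35 generally sequence-specific binding.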

Sequence	PBM E-score
AGCCCCAA	0.164
ACTCATCT	-0.0225
GATACCCC	-0.0734
CTGGAGAA	-0.22
CAATTCGG	-0.00575
AATCCAGC	0.164
CCCCCTAG	-0.194
AACTGTTC	-0.0709
ACGCGCAG	-0.00268
GAAATCGC	0.0189
AGCGATAC	0.0533
CAGATAGG	0.0828
AAGTCGAT	-0.119
AAATCTCC	-0.14
CAGAAAAG	0.104
CTGAATAC	0.121
TCATGCAA	-0.0976
CATTGGCA	0.0197
AGTCTTGG	0.0424
GGCCAAAC	-0.176
CGGCTAGC	-0.209
TCCCCGCA	-0.0108
AACTCACT	-0.189
GTCCGAGA	0.081
ATATTCGC	0.15

Sequence	PBM E-score
AAGGGGAT	0.149
CACATCGA	-0.143
CAAAGTTG	-0.0106
AAGAACAT	0.057
CCAGTCAG	-0.0325
GCATGATA	-0.0115
ATTAGAGA	-0.0115
CGAACAAG	0.083
AAGGTGGT	0.088
ACGACAAT	-0.0803
ACCACTAA	0.285
GGGCTATA	-0.0411
CGCAAGGA	-0.0605
GTCCGAAA	0.212
ACACCCGT	-0.0355
AGTGTGTC	-0.0681
ATATTCCG	0.131
AAGTTAGC	0.14
CATAGTGC	0.0478
GGTTTGAA	-0.00939
CGCGGAGC	-0.112
GCAAGTTA	0.132
GCTGCGAC	0.131
CCCGTTGC	-0.024
CGCTCTTA	-0.132

Sequence	PBM E-score
CTGACCCA	-0.116
GCGGCACC	0.324
GCAGACGA	-0.00236
CCGTTAGA	-0.184
CAACGTAG	-0.0877
ATACGACG	0.135
TGTGCACA	-0.211
ACCTCGCT	-0.0253
AGTCGAAG	0.00821
ATACCCGC	0.165
CTACGGGA	-0.0438
CAACAGGA	0.226
AATAACAG	0.023
AGGAACCC	0.414
ACCGCACT	-0.0376
CCTATTTA	0.247
GGTGCACA	-0.0102
ATCGAAAG	0.0655
AAGACAGA	0.0846
AAACATTT	0.114
AGGTGCGG	0.084
TATATAGA	0.139
CTTAAGGA	0.089
ACGTGGCG	-0.111
ATGCTCTC	-0.181

Sequence	PBM E-score
GTTCGAAC	-0.273
AATGGTTG	0.219
AATATTGG	0.136
CGGATGCC	0.404
AGCCCGTC	-0.126
AAAACGAA	0.0166
CAAATGAG	-0.0616
GAACGGAA	0.147
ACCGGAAT	0.185
GATAGAGA	-0.208
CGTTAGAC	-0.206
ATTCGCAC	0.151
CAAACTCG	-0.0788
AGGCCGCG	0.0497
AGTATGAG	0.0911
AATTCTCC	0.132
CATGAACA	0.0345
CACGACAG	-0.156
GCCTATTA	0.0413
CCCTGGAC	0.00836
CACATATA	0.00725
TGAAGTCA	-0.142
CATTGATA	0.121
ACAGACGT	-0.102
GCCACCCC	-0.0686

Sequence	PBM E-score
CGGGAGAG	-0.159
ACATTGCC	-0.215
CGAGTCGA	-0.0785
TCGTTTCA	0.077
AAACAGTC	-0.193
CAGTATAA	0.12
GCCTAGAC	-0.0881
GATACTCC	-0.102
AGCGAATC	-0.0692
CAAAAAAG	0.0858
ACGTGGTA	0.0341
AAAGTATG	-0.142
CATCGCGC	0.0318
GCCTACGC	-0.251
CTCGCAAC	0.116
AATAATAG	0.174
GATACCAA	0.154
CTTGACGA	0.0408
AGTTAATG	0.139
ACGTGGTC	-0.122
TCTGCTAA	0.134
CCCACGCA	-0.152
ATTAATCC	-0.00583
ATGTAGGG	-0.0731
AACCCCGT	-0.16

Sequence	PBM E-score
ACACTTAA	0.0453
CTTGCTAC	-0.134
ACTGGATA	0.108
TAGAGATA	0.0586
CCGACGTC	-0.205
ACTCCTCT	-0.00214
ACTGATAA	0.123
CTGGGCAC	0.239
CATACTAA	0.00569
CTATTCTC	0.0222
AGTTGTAC	-0.0696
CGAGAGTC	-0.0457
AAGAACAG	-0.0613
CGCAGCAG	0.0351
AGGCAGGA	-0.16
GTGCCGAA	0.101
ATCTGTCC	-0.0498
CGGCTTAC	-0.205
AAGGAAAT	-0.0571
AAGAGAAC	-0.0316
CCTAGCCA	-0.0616
ATATGGGA	-0.00549
AAATTGAA	-0.147
AGGAGGGG	0.122
AACTCGCA	0.0562

Sequence	PBM E-score
GCACATTA	-0.0914
CTCACGAA	-0.109
GACAGAAA	0.0677
AGCGGGTC	-0.102
GACAGCAC	-0.0932
CCATGGAG	0.00021
CAAAGAAG	0.184
TGCGCGCA	0.265
CTCACTCA	-0.0579
ATCCTTCC	-0.273
CGACAAGA	-0.0523
ATGGCTCG	-0.0906
CAGCATGC	-0.257
GGCACTCA	-0.189
ATAGGGAA	0.0857
GCTGCTCA	0.127
ATGGATCG	-0.224
CACAAGAG	0.0544
GAATGCAC	0.0479
ACCCGCTC	-0.0223
ATTAATGC	-0.0674
CGCAAAGA	-0.0565
GAAGCCAA	0.29
CACCGCTG	-0.0479
AGAACTAC	-0.128

Sequence	PBM E-score
CGGAAATC	-0.0578
ACGTTCAC	-0.22
CTGTACAC	-0.082
ACTATAGC	-0.152
CCATCTAC	-0.144
CCAGATGG	0.114
TAAGATTA	-0.0364
CTCGACGC	-0.076
CCTAGCAC	0.157
AATGACAC	-0.0813
ATATTAGC	0.0943
ATAGCGGC	0.072
AGGTCACG	-0.175
GGTAGGAC	-0.177
CCCGCCTC	-0.162
CCCGGAAG	0.182
AGACGCTA	0.293
AATGGCAA	-0.0531
ACCACCGC	-0.182
CAATTACA	-0.0309
CATAGAGA	-0.147
CCGGACAG	-0.286
ATTTGGAC	0.166
GCTACTAC	0.239
TAGCAAGA	-0.0531

Sequence	PBM E-score
AAGCACGT	0.202
CGGTCATA	-0.37
CTAAATAA	0.102
TACAATGA	0.0447
GGTGAGGA	-0.0681
ATTACCCC	-0.0683
CCGCGACA	0.0236
GCAATCAA	0.0455
AGCCCGGG	-0.0203
GCGGGGTA	-0.101
AATCGCCC	-0.26
AGGATCAT	-0.0661
CTATTCCA	0.112
AGCAACTG	0.0502
ACTAAAAT	0.209
TCGGACGA	-0.183
CAGAAGAA	0.212
AAACTGTT	0.00939
AACTCGTG	0.0132
